Measured values published in the RNAGym collection of RNA variant scans (doi:10.7554/elife.90254).
Read counts are not given, so values of variants with three or more changes are uncertain.

B1: LINE1-mini (parent)
chain: GGCAGAGCUCAACACAGCGUGGCAAAGUGGCUGUGGCUAGACUGCC

Variants of: B1
Assay: self-cleavage, relative activity (ratio to wild type); higher = more cleavage; in vitro, sequencing; the parent is a self-cleaving ribozyme

Variant	self-cleavage
A16C G17C G21C G27U	0.04
A16C G27A G40A	0.02
A16C G22A G36U G40U	0.02
A16C G21A C31A U34G G35U	0.08
C15U G22C G35C A41G	0.19
C15U C18A C23G G30A U32A C42G C46A	0
A16G A39C C45A	0.01
A16C A25U C37U	0.15
A16C G17C U43C	0
C15U A26G G35A C37A C45G	0.09
C15U G29U G35A	0.05
A16C G17C A26U C37A C45A	0.07
C15U G19C A24C G29U G36A	0.19
A16G A39U C42A	0.06
C15U U34G C42U G44C	0.03
A16C U20G U28G	0
A16C U20G U28A	0.06
A16C A25U G35A G40U	0.05
C15U A16U C23U G33A	0.09
C15U U20C G44A	0.02
C15U G22A C37U	0.04
C15U G17A C31A	0
A16C G17U G27U A39U	0.13
C15U G21U C23A A26C C31A G36A A39G	0.06

Variant	self-cleavage
C15U C37U U38A A39G	0.03
C15U G17C U34A G36A	0.03
A16C G21U G35U	0.02
C15U G29U C37G U38C U43C	0.03
C15U C18U U32A U38A	0.15
A16C C23U G33A G40A	0.03
C15U C23U G30C A41U	0.23
A16G C18A G27C G36U	0.01
A16C U28A U43C C46U	0.02
C15U A16C G21A U32C U34G	0.04
A16C A25C A26G C37U C42G	0.07
C15U G44A C45A	0.03
A16C C18A G19A U20G G27U U32C A41G	0.01
C15U G33C C37G U38G	0.03
C15U A26U U43A	0.2
C15U A25C G27C A41G	0.12
C15U U28C A39C	0.04
C15U U38G A39C	0.02
A16C U28A G29U G33A G36U C45A	0.06
C15U G22C C37G U38G	0.04
A16C G22U A25G U28A G36A G40C	0.04
C15U U20C C23A A24U G36A U38A C45A	0.08
C15U U34G A41U C42U	0
C15U U20G U28A	0.82

Variant	self-cleavage
C15U C45U C46G	0.01
C15G U32C U38G	0.07
A16C C31G G33A C37A	0.06
A16C G19U G44A	0.01
C15U A24C G40C G44C	0.19
C15U A24C U38C A39G	0.03
A16G C18U G21A	0.48
C15U G21C G29C	0.15
C15U C18A U34A	0.03
A16C U34C G35U C37U	0.02
A16C G29C C45G	0.08
A16G A24G A25C C46U	0.04
C15U G21U C23A C45U	0.18
C15U G30A U32C C42A	0.16
C15U G27U C37A	0.15
A16C A24G C31U A39C A41U	0.03
C15U C31A U38A C42G	0.03
C15U G21A A25G U34A	0.06
A16C G17U G29C C45G	0.02
A16C C18G G29A	0.22
A16C A39U C45U	0.08
C15U G21U G33U	0.08
C15U C18G G21C	0.46
A16C G27A C31G	0

Variant	self-cleavage
C15U A16G G22U C23G G29U U38A	0.14
C15U G21C A41U	0.2
A16C G36A C45G	0.04
A16C C23A A39G	0.14
C15U A16G G19U C23A	1.56
C15U A16U G30C U32C A41U	0.03
A16C G19A G36C C37U	0.04
A16C G33A U38A	0.07
C15U U32C G36C A41G G44C	0.03
C15U C18G G21U G27U	0.2
A16C U34C U38A	0.02
A16C G21U A41U	0.05
C15U U32G G35C	0.07
C15U G22C U32A	0.02
C15U G33C C37U C46U	0.02
A16C C18G G30C C37A	0.04
A16C G19U C23A	0.04
C15U G17A G29A	0.15
C15U A25U A26G U28C G30A	0.4
C15U G27U G35A C37A	0.32
C15U G17U G22A U28G U38C	0.02
C15U A39C C42U	0.01
A16C G19A U20C G33U	0.03
C15U G29C C42A	0.12

Variant	self-cleavage
C15G U34C A39C	0.07
C15U G22A G29U C31U C46A	0.03
A16C C31U U43G	0.07
A16C C37G U38A C42U	0.29
C15G U32C G36U	0.06
C15U G30A C31G U34G	0.01
A16C C18A G22U U32C	0.03
C15U A26C C46A	0.63
A16G C18U G30A U34C	0.02
A16C C23A C31U	0.05
C15U C31U U43A	0.04
A16C G17C U20A G29U	0.11
C15U U34A U38G	0.09
C15U G19U G29U C37A	0.04
C15U G19A C31U	0.1
C15U G22A G35A	0.07
A16C G19A G33U	0.08
A16G A26G U38C	0.11
C15U A16G C45A	0.15
A16C G17U G44C	0
C15U C31G U34A	0.03
A16G A25U C31A	0.02
C15U A16G G30A	0.02
C15U G22C U28G G40A	0.1

Variant	self-cleavage
A16C G29U G33U G44U	0.01
C15U G33A G36U G44C	0.12
A16C C23U A24G	0
A16C G40U U43A	0.19
C15U U34A G44C	0.07
A16C G19A G27U	0.15
C15U G17C A25G	0.01
C15U A24C G36U	0.14
A16G C18U C46A	0.06
A16C G21A G36A	0.02
A16C G27C A41C	0.02
C15U G22U G40U	0.09
C15U C18A G22A U28C C45U	0.01
A16C A26G G33A C37G G44U	0.03
A16C G22A U34A	0.05
C15U A16U G19C U28C U32A	0.92
C15U G30C C46U	0.08
C15U U38G G44U	0.05
A16C C31G G40U C45G	0.01
A16C C37A C45U	0.05
C15U G17U C31G	0.05
C15U G33A A39G A41G	0.01
C15U U20C G33A	0.77
A16C G27A G35C	0.03

Variant	self-cleavage
A16G C18U A24C G33A U43C	0
A16C G40C U43A	0.03
C15U G33A C37U U38A	0.04
C15U C37U U38G	0.02
A16G A25C A41U	0
A16G A39C A41U	0.15
A16C G21C G22A	0.08
A16C G27C C42G	0.05
A16G A24U G27U G30A	2.31
C15U G19U A26C G27U U34A	0.38
A16C U34A C46G	0.01
C15U A26C C31A	0.14
C15U C18A G44A	0
A16C G21C G27A U43A	0.21
C15U A16U G19U A26C	0.11
C15U A24G U34A G44U C46U	0.18
A16C A24C G29U A39C G44A	0.05
C15U C31U U38A C42U	0.22
A16G C18A A26C	0.06
A16G C18A C31A G40U	0
C15U G19U G22A G29A A39C	0.08
C15U C23U C37U	0.08
C15U G29C C31A U34G	0.09
